# Reference: the BET-seq Pho4 binding data (Le et al. 2018)
# Some of the results follow. These are noisy estimates, calculated here from bound and input reads.
# Target: T1, Pho4 (S. cerevisiae) (UniProt P07270)
# T1 sequence: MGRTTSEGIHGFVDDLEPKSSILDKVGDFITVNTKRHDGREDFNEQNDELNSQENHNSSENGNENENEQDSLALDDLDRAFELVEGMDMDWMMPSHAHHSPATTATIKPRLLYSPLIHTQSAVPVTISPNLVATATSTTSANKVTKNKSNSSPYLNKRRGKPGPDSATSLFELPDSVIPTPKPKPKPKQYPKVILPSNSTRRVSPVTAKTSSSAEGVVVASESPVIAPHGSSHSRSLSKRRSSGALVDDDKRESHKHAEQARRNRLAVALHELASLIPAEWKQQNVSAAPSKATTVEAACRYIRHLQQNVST
# Test: relative binding free energy (BET-seq); higher = weaker binding
# Settings: reference: library average
row,Sequence,relative binding free energy
1,TTGGACACGTGTTAAG,0.15 kcal/mol
2,ATGGTCACGTGTAGTC,0.17 kcal/mol
3,ATTATCACGTGGTTGT,-0.04 kcal/mol
4,TAGGACACGTGTGCTT,-0.11 kcal/mol
5,GTTTGCACGTGGGAGG,0.01 kcal/mol
6,TCATTCACGTGTAATT,0.2 kcal/mol
7,GCCGGCACGTGGGGGT,-0.21 kcal/mol
8,TAATTCACGTGGGGGG,0.24 kcal/mol
9,TGGCACACGTGGGGAG,-0.15 kcal/mol
10,TTGCGCACGTGTTCGG,-0.12 kcal/mol
11,TTGTACACGTGCAGGT,0.09 kcal/mol
12,GGGGACACGTGTGTTT,0.11 kcal/mol
13,TATGGCACGTGTAGTC,0.04 kcal/mol
14,CTGGTCACGTGAGTTA,0.31 kcal/mol
15,GGTAGCACGTGATTCG,0.09 kcal/mol
16,AGTGCCACGTGTGGCA,-0.01 kcal/mol
17,TGATTCACGTGTGAAC,0.45 kcal/mol
18,TGATTCACGTGGAGAG,0.24 kcal/mol
19,TAGGGCACGTGCCTGG,-0.15 kcal/mol
20,TAGTTCACGTGTAATA,0.24 kcal/mol
21,CGGAGCACGTGGGGTG,-0.3 kcal/mol
22,GAGGGCACGTGCGGTC,-0.17 kcal/mol
23,AGGTGCACGTGGGGGT,-0.2 kcal/mol
24,ATGTTCACGTGGTTCC,0.29 kcal/mol
25,GAGGCCACGTGGTGAG,-0.16 kcal/mol
26,TGTGGCACGTGCACAT,-0.1 kcal/mol

row,Sequence,relative binding free energy
1,GCGGGCACGTGAGGAG,0.22 kcal/mol
2,GTCAGCACGTGAAGGG,0.27 kcal/mol
3,GTTGTCACGTGTTTCT,0.12 kcal/mol
4,ATAAGCACGTGTAGTA,-0.1 kcal/mol
5,TTGCTCACGTGCTTGT,-0.04 kcal/mol
6,GGAAACACGTGGTGTG,-0.05 kcal/mol
7,TGTTGCACGTGAGGCG,0.02 kcal/mol
8,TATGTCACGTGGCGGA,0.06 kcal/mol
9,GTTATCACGTGCTATT,0.33 kcal/mol
10,GCGTACACGTGGAGTG,0.03 kcal/mol
11,GGGCGCACGTGAGGCA,0.18 kcal/mol
12,GTTCTCACGTGATGGT,0.27 kcal/mol
13,GATAGCACGTGAGATG,0.23 kcal/mol
14,GGTTGCACGTGTATTA,0.19 kcal/mol
15,GTAGTCACGTGTGGCC,0.16 kcal/mol
16,ATTATCACGTGGTCTT,0.02 kcal/mol
17,CTTGCCACGTGGGGGT,-0.34 kcal/mol
18,TTTATCACGTGATTTG,0.3 kcal/mol
19,TTTATCACGTGGACAT,0.06 kcal/mol
20,GAAATCACGTGTTTTG,0.21 kcal/mol
21,CGTACCACGTGGGGGT,-0.37 kcal/mol
22,AGTGACACGTGTGGAG,0.1 kcal/mol
23,TTCGACACGTGGAGTG,-0.01 kcal/mol
24,TTAATCACGTGTGGGC,0.21 kcal/mol
25,GAGTTCACGTGAAGCT,0.53 kcal/mol
26,ATTGGCACGTGACTGT,-0.02 kcal/mol

row,Sequence,relative binding free energy
1,GGGTGCACGTGTGGTT,0.1 kcal/mol
2,TTTGCCACGTGGTCGT,-0.15 kcal/mol
3,TATTTCACGTGCTGGG,0.34 kcal/mol
4,AGGAGCACGTGTGGAG,-0.02 kcal/mol
5,CGAGTCACGTGATTTT,0.31 kcal/mol
6,ACTGGCACGTGTGGAG,-0.03 kcal/mol
7,GCCGGCACGTGAGTGT,0.26 kcal/mol
8,TGCGGCACGTGGGACG,-0.27 kcal/mol
9,CTGGACACGTGTGGGG,0.22 kcal/mol
10,TGGACCACGTGTGTAG,0 kcal/mol
11,GTTCACACGTGTGGAT,0.13 kcal/mol
12,AAGAGCACGTGTCTTG,0.02 kcal/mol
13,AGGTGCACGTGAATAT,0.15 kcal/mol
14,TATTGCACGTGGGCTG,-0.21 kcal/mol
15,TATTGCACGTGCAGGT,-0.14 kcal/mol
16,CATGGCACGTGGTTTG,-0.24 kcal/mol
17,GTGTCCACGTGGCGTG,-0.06 kcal/mol
18,ATTGGCACGTGTGCTC,-0.04 kcal/mol
19,TAGACCACGTGGTGGT,-0.12 kcal/mol
20,GACATCACGTGTGTTT,0.24 kcal/mol
21,GGTTGCACGTGGACTG,0.06 kcal/mol
22,ATTGGCACGTGTCAGG,-0.03 kcal/mol
23,GAAGGCACGTGGGGTC,-0.26 kcal/mol
24,CAGTTCACGTGTATTG,0.26 kcal/mol
25,GCATGCACGTGGTTAG,0.01 kcal/mol
26,GGTGTCACGTGCAAGG,0.04 kcal/mol

row,Sequence,relative binding free energy
1,GTGTGCACGTGGAGCT,-0.13 kcal/mol
2,GAGATCACGTGAGGAG,0.48 kcal/mol
3,AGGATCACGTGACGTT,0.35 kcal/mol
4,AAAGACACGTGTGTGG,-0.05 kcal/mol
5,GTTTACACGTGCGGAG,0.06 kcal/mol
6,GGGGGCACGTGGCATG,-0.27 kcal/mol
7,ATGTGCACGTGGGTCT,-0.19 kcal/mol
8,TTTGGCACGTGTCGCT,-0.01 kcal/mol
9,GTTATCACGTGGCGCG,0.38 kcal/mol
10,AATTTCACGTGTCATA,0.27 kcal/mol
11,GGATTCACGTGGGGAT,0.41 kcal/mol
12,TACGTCACGTGTTAAT,0.07 kcal/mol
13,ATCTTCACGTGAGTAA,0.42 kcal/mol
14,GTCATCACGTGTTTTG,0.26 kcal/mol
15,TTCATCACGTGGGTGC,-0.01 kcal/mol
16,AGTTGCACGTGCTTGT,0.02 kcal/mol
17,TTTCTCACGTGTCTGG,0.2 kcal/mol
18,GCTTTCACGTGGGGAA,0.22 kcal/mol
19,TACTGCACGTGAAGGG,0.25 kcal/mol
20,TTATGCACGTGCAGGT,-0.08 kcal/mol
21,AGAGTCACGTGGGTAA,0.02 kcal/mol
22,TGGGGCACGTGTGTAG,-0.02 kcal/mol
23,GTAATCACGTGCGGTG,0.22 kcal/mol
24,AGGTGCACGTGCGGTA,-0.11 kcal/mol
25,GGTAGCACGTGTTCTA,-0.06 kcal/mol
26,AGTTGCACGTGCATGA,-0.12 kcal/mol

row,Sequence,relative binding free energy
1,TGTGTCACGTGTTTAT,0.14 kcal/mol
2,GAGGCCACGTGAGTGT,0.17 kcal/mol
3,TAGTGCACGTGTGCAA,0.15 kcal/mol
4,GTCGGCACGTGGTTTT,-0.05 kcal/mol
5,TGTCGCACGTGGAATG,0.03 kcal/mol
6,GTATGCACGTGGAGGG,-0.05 kcal/mol
7,AGATCCACGTGTGGGT,0.1 kcal/mol
8,GTTTGCACGTGGTAGT,0.02 kcal/mol
9,ATTTCCACGTGTTTAG,0.09 kcal/mol
10,TTGAGCACGTGCTTTA,-0.2 kcal/mol
11,TTGTGCACGTGAAGCT,0.19 kcal/mol
12,TGTGGCACGTGTAGGG,0 kcal/mol
13,GTTCTCACGTGTTTAA,0.29 kcal/mol
14,TATTGCACGTGCTGGT,-0.18 kcal/mol
15,TTTGGCACGTGGGTCA,-0.18 kcal/mol
16,TGAGACACGTGGGGAT,-0.08 kcal/mol
17,GTGGGCACGTGGATGC,-0.02 kcal/mol
18,CGAGGCACGTGAGGCG,0.06 kcal/mol
19,TGTACCACGTGGTGTA,-0.22 kcal/mol
20,CTGCGCACGTGGGGTA,-0.35 kcal/mol
21,AATAACACGTGAGGGG,0.32 kcal/mol
22,CGGGCCACGTGATTGG,-0.03 kcal/mol
23,TTATGCACGTGTTGGG,0.06 kcal/mol
24,TCGTTCACGTGGGATC,0.29 kcal/mol
25,GTGCACACGTGCAGGT,0.15 kcal/mol
26,TTACGCACGTGGTGCT,-0.26 kcal/mol

row,Sequence,relative binding free energy
1,GTTTACACGTGTATGA,0.24 kcal/mol
2,ATTGTCACGTGTTGAG,-0.02 kcal/mol
3,TTAGTCACGTGAGATA,0.11 kcal/mol
4,AGGGGCACGTGAATTG,-0.05 kcal/mol
5,GTCGGCACGTGCGGTT,-0.12 kcal/mol
6,TAGGCCACGTGGGAGT,-0.17 kcal/mol
7,TGTAGCACGTGCAAGT,-0.13 kcal/mol
8,ATATGCACGTGGTTAC,-0.08 kcal/mol
9,GGCGGCACGTGGGGCA,-0.19 kcal/mol
10,AGGAACACGTGGTGTA,-0.13 kcal/mol
11,TTGATCACGTGGAACT,0.27 kcal/mol
12,ATTTACACGTGTAGGT,0.12 kcal/mol
13,CAGGTCACGTGTTAGT,0.27 kcal/mol
14,GGAGACACGTGGGCTG,-0.08 kcal/mol
15,CGTTACACGTGGGAAA,0.2 kcal/mol
16,TGAGGCACGTGGCATT,-0.17 kcal/mol
17,GTTGGCACGTGTGGGG,0.09 kcal/mol
18,TTGATCACGTGTTGGG,0.16 kcal/mol
19,CTCAGCACGTGGTGGT,-0.13 kcal/mol
20,GCGATCACGTGGGGCG,0.12 kcal/mol
21,ATTTGCACGTGTAGCT,-0.11 kcal/mol
22,TTTAACACGTGTTGTG,-0.07 kcal/mol
23,GGCTTCACGTGATTGG,0.32 kcal/mol
24,GGTGGCACGTGTCATG,-0.06 kcal/mol
25,GTTGTCACGTGAAAAG,0.28 kcal/mol
26,ACACGCACGTGGGTGG,-0.25 kcal/mol

row,Sequence,relative binding free energy
1,GTTTTCACGTGCTTGC,0.27 kcal/mol
2,AAGAGCACGTGTAGTG,-0.09 kcal/mol
3,TGTTTCACGTGTAGAA,0.34 kcal/mol
4,TAGGTCACGTGTTAGT,0.11 kcal/mol
5,CGTTCCACGTGAGTGG,0.21 kcal/mol
6,TTTATCACGTGATGCT,0.19 kcal/mol
7,TTCATCACGTGGTAGG,0.14 kcal/mol
8,TCAAGCACGTGTGGGA,0.07 kcal/mol
9,TTGGGCACGTGGTCGA,-0.18 kcal/mol
10,GGGTCCACGTGTGTAG,0.02 kcal/mol
11,TGGGGCACGTGAATTA,0.13 kcal/mol
12,GTTTGCACGTGGTAAT,0.05 kcal/mol
13,AGATGCACGTGCGGAT,-0.02 kcal/mol
14,CTGATCACGTGGGTTA,-0.04 kcal/mol
15,TCAATCACGTGTGGCT,0.19 kcal/mol
16,GGTGGCACGTGGCAAG,-0.07 kcal/mol
17,ATTGTCACGTGTGTTA,-0.03 kcal/mol
18,TGCCGCACGTGCGTGG,-0.04 kcal/mol
19,TTAGGCACGTGTGGTG,-0.02 kcal/mol
20,TAGAGCACGTGTAAGG,0.05 kcal/mol
21,CTAGGCACGTGCGGGG,-0.1 kcal/mol
22,TTTTGCACGTGTTTGG,0.09 kcal/mol
23,GTTTGCACGTGATGCT,0.18 kcal/mol
24,TTAAACACGTGGGGTT,-0.15 kcal/mol
25,AGGCTCACGTGCTGGG,0.22 kcal/mol
26,AAGGTCACGTGGCATT,0.1 kcal/mol

row,Sequence,relative binding free energy
1,TGCGGCACGTGCGTTT,-0.14 kcal/mol
2,AGTACCACGTGTGAGT,0.06 kcal/mol
3,TGGGGCACGTGGCTGC,-0.2 kcal/mol
4,GTTAGCACGTGTATGG,0.1 kcal/mol
5,TTCCTCACGTGATGGG,0.35 kcal/mol
6,AAGTGCACGTGATAAT,0.11 kcal/mol
7,CTGTACACGTGGGGAG,0 kcal/mol
8,TTGGGCACGTGGTAGA,-0.04 kcal/mol
9,GGGCACACGTGAAGGA,0.38 kcal/mol
10,TATAGCACGTGGGGGC,-0.24 kcal/mol
11,TTGTGCACGTGCCTGG,-0.18 kcal/mol
12,ATGGACACGTGCTGTG,-0.2 kcal/mol
13,AGAAGCACGTGCGTGG,-0.1 kcal/mol
14,TTTGTCACGTGAAAGA,0.36 kcal/mol
15,TTGTGCACGTGGAATG,0.14 kcal/mol
16,AGCTTCACGTGATTGG,0.24 kcal/mol
17,TATTACACGTGCGGGA,0.03 kcal/mol
18,GGGGACACGTGGTAAT,0.07 kcal/mol
19,ATAAGCACGTGGTCTT,-0.18 kcal/mol
20,GGGTTCACGTGTAGTG,0.34 kcal/mol
21,GGATGCACGTGTATGT,0.08 kcal/mol
22,AGGAGCACGTGAATGG,0.08 kcal/mol
23,TGGTGCACGTGTGCTA,-0.04 kcal/mol
24,CGTGGCACGTGCTTAG,-0.11 kcal/mol
25,TTATACACGTGGGGGC,-0.04 kcal/mol
26,TTAAGCACGTGATTAA,0.04 kcal/mol

row,Sequence,relative binding free energy
1,GATTTCACGTGAAGAG,0.5 kcal/mol
2,TTGAGCACGTGACTGG,0.08 kcal/mol
3,GGGAACACGTGATGGT,0.29 kcal/mol
4,TCTTGCACGTGGTTGC,-0.1 kcal/mol
5,CGGGTCACGTGGGTTT,0.11 kcal/mol
6,TACTGCACGTGAATGG,0.19 kcal/mol
7,TTTATCACGTGATGAG,0.23 kcal/mol
8,CAGGTCACGTGATTTA,0.24 kcal/mol
9,GATAACACGTGAGTGG,0.27 kcal/mol
10,AGTTCCACGTGTGCTT,0.23 kcal/mol
11,AAGGTCACGTGTTGTT,0.06 kcal/mol
12,TATTCCACGTGTGGTT,0.09 kcal/mol
13,ATTATCACGTGGTTTT,0.22 kcal/mol
14,AGGTGCACGTGGCGCG,-0.21 kcal/mol
15,GGTATCACGTGCTTTT,0.06 kcal/mol
16,GGCGTCACGTGTTCTT,0.24 kcal/mol
17,TAATACACGTGTTTGC,0.03 kcal/mol
18,TGTGCCACGTGAGGGC,0.14 kcal/mol
19,TTAGTCACGTGAACGG,0.26 kcal/mol
20,ACTATCACGTGGGTAT,0.01 kcal/mol
21,GCAGTCACGTGGAGGG,0.05 kcal/mol
22,GGAGGCACGTGTGTAT,0 kcal/mol
